{
  "source": "the supplement of paper PMC11417369",
  "note": "± gives the standard deviation of the averaged measurements. Some of the results follow.",
  "data": [
    {"tested_on": "PfAP2-LT AP2 domain (GST-tagged)", "test": "gcPBM binding intensity (ln(normalized median fluorescence intensity)); higher = stronger DNA binding", "summary_of_the_method": "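DNA-binding domains from P. falciparum, fused to GST and produced in E. coli, were put on an Agilent 4 × 180k double-stranded probe array for 1 h in 1× PBS holding 1% milk, 0.2 mg/ml BSA, 0.5% salmon testes DNA and 0.03% Triton X-100. Probes were primer-extended, 36 bp long and drawn from intergenic genomic regions, with negative controls included. After Alexa488 anti-GST antibody detection and a 488 nm scan, binding intensity was set as the highest Masliner-normalised natural-log median intensity across replicate spots of either probe orientation.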", "values": [
      {"sequence": "TATATATAAAAATATACACACACAAATGTATATATA [CACACA_site7956]", "gcPBM binding intensity (ln)": "9.15 ± 0.33"},
      {"sequence": "ATGATGTGCAAGAGTAGTACACAATTTTGGGTTTAT [XGTACX_site501]", "gcPBM binding intensity (ln)": "9.05 ± 0.33"},
      {"sequence": "AAACATAAGAAACACACACACATATATATATATATA [CACACA_site3642]", "gcPBM binding intensity (ln)": "10.32 ± 0.064"},
      {"sequence": "AACATCAATTTATTTTCTTACATTATACGATTCATG [CACACA_negctrl_site1300]", "gcPBM binding intensity (ln)": "8.71 ± 0.4"},
      {"sequence": "TAATTATGCCAACACACACACACACCCAACTAAAAA [CACACA_site8823]", "gcPBM binding intensity (ln)": "9.965 ± 0.092"},
      {"sequence": "AAAAAAAAATCAAAATGTACTTATTTTTATAATAAT [XGTACX_site4712]", "gcPBM binding intensity (ln)": "8.33 ± 0.58"},
      {"sequence": "AGAATATCAAAATAAAGTACATTTATTATATATATG [XGTACX_site7100]", "gcPBM binding intensity (ln)": "8.61 ± 0.53"},
      {"sequence": "TTTTCTCTCAAAAAATGTACATAATATATATATTTT [XGTACX_site4861]", "gcPBM binding intensity (ln)": "8.51 ± 0.48"},
      {"sequence": "AAAAAAAAAAAACATACACACATACATACCTATATA [CACACA_site6575]", "gcPBM binding intensity (ln)": "9.33 ± 0.3"},
      {"sequence": "ATTCTTATAACAAGAAGTACAAATATATGTATATAT [XGTACX_site4528]", "gcPBM binding intensity (ln)": "8.7 ± 0.43"},
      {"sequence": "TATACATCATTTTTCAACAACAAAAAAAAAAAAAAT [CACACA_negctrl_site1185]", "gcPBM binding intensity (ln)": "8.46 ± 0.47"},
      {"sequence": "ACGTAAAATAGGGACGCATGCACAAATATTTTTAAA [TGCATGCA_site336]", "gcPBM binding intensity (ln)": "9.24 ± 0.35"},
      {"sequence": "ATATATATAAATACAACACACATGTAATATATAAAT [CACACA_site5766]", "gcPBM binding intensity (ln)": "9.3 ± 0.38"},
      {"sequence": "CTATATATATATTTCAGTACATATTAAGAATATATA [XGTACX_site4860]", "gcPBM binding intensity (ln)": "8.41 ± 0.42"},
      {"sequence": "TAATAATTACAAAGAAGTACATAAAAAAAAATTTAT [XGTACX_site4684]", "gcPBM binding intensity (ln)": "8.6 ± 0.48"},
      {"sequence": "TATATAAATATATACACACATACATACATACATATA [CACACA_site3835]", "gcPBM binding intensity (ln)": "9.2 ± 0.33"},
      {"sequence": "TTCTAATAAATGTGTTGTACACCTTTAGCAACTATT [XGTACX_site3235]", "gcPBM binding intensity (ln)": "8.87 ± 0.41"},
      {"sequence": "TATATATATTTATGCACACAAAATATATTATATAAT [CACACA_site5955]", "gcPBM binding intensity (ln)": "8.88 ± 0.33"},
      {"sequence": "AGGAAAAAAGAAAAAACACACATAAATATTTATATA [CACACA_site7446]", "gcPBM binding intensity (ln)": "8.85 ± 0.49"},
      {"sequence": "TTATTTATTTATTGTTGTACACAAAATGATTCTTAA [XGTACX_site6480]", "gcPBM binding intensity (ln)": "8.58 ± 0.45"},
      {"sequence": "AAACAAAACAAAACATGTACACATTATATATATATA [XGTACX_site3374]", "gcPBM binding intensity (ln)": "9.15 ± 0.4"},
      {"sequence": "ATTAATTATATATATACACACACATACACCCAAATA [CACACA_site9126]", "gcPBM binding intensity (ln)": "9.66 ± 0.23"},
      {"sequence": "TAAATACTTCGTAAAACACACAAGTAGAAAAAAAAA [CACACA_site360]", "gcPBM binding intensity (ln)": "8.83 ± 0.48"},
      {"sequence": "ATAATTAGTTCAATTTTTTTTTTTTTTTTTTTTTTT [CACACA_negctrl_site1371]", "gcPBM binding intensity (ln)": "8.66 ± 0.18"},
      {"sequence": "AAAAATATAATATATGCACACATACATACATATATA [CACACA_site7915]", "gcPBM binding intensity (ln)": "8.97 ± 0.39"},
      {"sequence": "TAAAAATTAAAACTGGGTACAAATTTATAGATAGCC [XGTACX_site8075]", "gcPBM binding intensity (ln)": "8.86 ± 0.52"},
      {"sequence": "AATTTATTAGATAGATGTACATTTTAATAAAAGTAG [XGTACX_site6819]", "gcPBM binding intensity (ln)": "8.51 ± 0.45"},
      {"sequence": "CATTAACAAATAAATGCACACATATATATAAATAAT [CACACA_site7892]", "gcPBM binding intensity (ln)": "9.04 ± 0.35"},
      {"sequence": "TCCCCTTAATTTAAAACACACAAACAAATAAGTTAG [CACACA_site5973]", "gcPBM binding intensity (ln)": "8.73 ± 0.39"},
      {"sequence": "AATATTTTTTTTTAAACATGCATATTTGCATTACCC [TGCATGCA_site437]", "gcPBM binding intensity (ln)": "8.73 ± 0.49"},
      {"sequence": "TTTACATTTATGTGCACACATTCCATTTGAAAGTAA [CACACA_site1953]", "gcPBM binding intensity (ln)": "8.9 ± 0.35"},
      {"sequence": "CTTATAAAAAAAATTGCACACATATTATACAGGACG [CACACA_site8133]", "gcPBM binding intensity (ln)": "9.04 ± 0.38"},
      {"sequence": "ATAAATTTTTTATGAACACACAAATACACCCACTCA [CACACA_site5465]", "gcPBM binding intensity (ln)": "9.31 ± 0.27"},
      {"sequence": "ATAACTTTCTATACATGTACACATATATGGTATTTT [XGTACX_site7535]", "gcPBM binding intensity (ln)": "9.14 ± 0.38"},
      {"sequence": "TGTATATATTTTAATAGTACTCATATATATATATAT [XGTACX_site7216]", "gcPBM binding intensity (ln)": "9.07 ± 0.11"},
      {"sequence": "ATTGTGTTGACGGGTGACCCTTCCAGAGAAATAGAA [CACACA_negctrl_site1362]", "gcPBM binding intensity (ln)": "8.63 ± 0.51"},
      {"sequence": "TTTTTTTTAATGAGAAGTACGGTCTTTCAATGTCTT [XGTACX_site6773]", "gcPBM binding intensity (ln)": "8.49 ± 0.35"},
      {"sequence": "ATATAAATAAATATATGTACACACACAAATATATAC [XGTACX_site3950]", "gcPBM binding intensity (ln)": "9.42 ± 0.23"},
      {"sequence": "TCTTTCTTATTTTAATGATATTTATTCATTCCAGTT [CACACA_negctrl_site1679]", "gcPBM binding intensity (ln)": "8.91 ± 0.57"},
      {"sequence": "AGAATTATTCTAAAAACACACAATACAAAAGTGCAT [CACACA_site3004]", "gcPBM binding intensity (ln)": "8.89 ± 0.46"},
      {"sequence": "ACTTTTACACTTTGATTGCACTACTAAACCAGTTCA", "gcPBM binding intensity (ln)": "8.96 ± 0.52"},
      {"sequence": "AATACTAAAACCCATACACACACATATATATAGTAC [CACACA_site9041]", "gcPBM binding intensity (ln)": "9.68 ± 0.3"},
      {"sequence": "ATAAAAAAAAATATTTGTACACATATTTATATATTA [XGTACX_site8147]", "gcPBM binding intensity (ln)": "8.54 ± 0.47"},
      {"sequence": "ATATGTTTTTTTTTTTTTTTTTAATTTGTCATAAAT [CACACA_negctrl_site1208]", "gcPBM binding intensity (ln)": "8.57 ± 0.45"},
      {"sequence": "TCTTTCAATATTAATGCATGTTAATAATAAATTTTA [TGCATGCA_site448]", "gcPBM binding intensity (ln)": "8.2 ± 0.35"},
      {"sequence": "TGAACAATATATAATAGTACATATTTATTTTTTTCT [XGTACX_site4256]", "gcPBM binding intensity (ln)": "8.57 ± 0.48"},
      {"sequence": "TAAAGATGAAATATCACACATATATAAATATATAAA [CACACA_site4580]", "gcPBM binding intensity (ln)": "8.75 ± 0.41"},
      {"sequence": "CAATGTTAACATATTACACACATATGTATTTATAAT [CACACA_site5512]", "gcPBM binding intensity (ln)": "9.04 ± 0.3"},
      {"sequence": "GCATATATTATATATTTATTTATTTTTTTTTTTTAA [GTGCAC_negctrl_site193]", "gcPBM binding intensity (ln)": "8.41 ± 0.51"},
      {"sequence": "ATATATATGAATACATGTACGTATTTGTCTATGTAT [XGTACX_site8306]", "gcPBM binding intensity (ln)": "9.09 ± 0.45"},
      {"sequence": "AAAATATTTATATTTACACACACATAATACATATAT [CACACA_site32]", "gcPBM binding intensity (ln)": "9.35 ± 0.35"},
      {"sequence": "GTGTACAGTTTTTGCACACATATAAATAAAAAAAAG [CACACA_site3599]", "gcPBM binding intensity (ln)": "9.28 ± 0.28"},
      {"sequence": "TAAATTACATGAAATTGTACATGAATATTAAATATA [XGTACX_site3909]", "gcPBM binding intensity (ln)": "8.4 ± 0.53"},
      {"sequence": "TTCGTTATAATTGAATTTACAATATGCTTTATAATG [XGTACX_negctrl_site238]", "gcPBM binding intensity (ln)": "8.61 ± 0.38"},
      {"sequence": "ATATATACAAAGGATTAACACACATATTATTATATA [CACACA_site8563]", "gcPBM binding intensity (ln)": "8.88 ± 0.52"},
      {"sequence": "ATGTTACTCAGACACACACACATAAAAAAACAAAAA [CACACA_site3249]", "gcPBM binding intensity (ln)": "9.63 ± 0.38"}
    ]}
  ]
}
